In PubChem BioAssay AID588591 (National Center for Advancing Translational Sciences (NCATS), 2011):
Among all 390,000 compounds or so, about 4,700 (1.2%) were called active. This list was built around the results that the source calls inconclusive (neither active nor inactive); the mix of calls is not that of the screen. Calls come from the whole dose curve; as a rule, active = well fitted inhibition curve with a large enough effect; inconclusive = small, poorly fitted or top-dose-only effect, or another doubt; inactive = no such curve, though single readings can be large or run the other way. A potency beside an inconclusive call is a rough fit, not a confirmed value.

Molecular target: DNA polymerase eta (Homo sapiens) (UniProt Q9Y253)
Sequence of UniProt Q9Y253 (Q9Y253 whole entry, looked up): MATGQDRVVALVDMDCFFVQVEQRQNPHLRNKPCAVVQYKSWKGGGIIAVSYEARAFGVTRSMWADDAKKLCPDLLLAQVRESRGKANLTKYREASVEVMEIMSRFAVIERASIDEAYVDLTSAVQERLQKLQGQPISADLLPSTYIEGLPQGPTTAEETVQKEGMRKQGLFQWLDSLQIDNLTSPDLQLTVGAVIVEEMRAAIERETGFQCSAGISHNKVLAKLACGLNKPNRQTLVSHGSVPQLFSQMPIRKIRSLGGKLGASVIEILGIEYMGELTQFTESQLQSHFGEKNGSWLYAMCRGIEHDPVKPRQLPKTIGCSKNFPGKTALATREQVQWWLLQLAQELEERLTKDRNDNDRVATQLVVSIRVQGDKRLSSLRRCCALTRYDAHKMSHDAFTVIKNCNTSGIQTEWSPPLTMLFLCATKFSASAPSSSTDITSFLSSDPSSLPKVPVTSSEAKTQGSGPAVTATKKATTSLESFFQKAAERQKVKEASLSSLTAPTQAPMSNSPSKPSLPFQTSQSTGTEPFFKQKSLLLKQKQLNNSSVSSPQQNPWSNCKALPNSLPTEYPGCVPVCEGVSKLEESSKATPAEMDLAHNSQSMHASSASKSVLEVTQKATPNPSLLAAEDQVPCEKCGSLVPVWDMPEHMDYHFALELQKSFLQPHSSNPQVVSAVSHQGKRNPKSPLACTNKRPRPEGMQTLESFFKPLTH
Test: qHTS for Inhibitors of Polymerase Eta
Conditions: recombinant Pol eta, fluorescent DNA replication assay; series mostly up to 114 µM
How it was run: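 Fluorescent replication assay: 50 nM final substrate added after a 15 min room-temperature compound preincubation with 10 nM enzyme. Signal taken at 0 min and again at 10 min.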
Potency is the fitted concentration of half-maximal effect; tags give direction and shape of the fitted curve.

Q: For `CCc1cccc(CC)c1-n1c(SCC(=O)N2CCc3ccccc32)nc(O)cc1=O`, which Potency is on record?
A: inconclusive: 56.2 µM [inhibitor, partial curve, poor fit]

Q: With `Cc1cc(C)cc(-n2c(SC(C)C(=O)NCc3ccc4c(c3)OCO4)nc3ccccc3c2=O)c1` (centres undefined) as the compound, how does the Potency read?
A: inconclusive: 28.2 µM [inhibitor, partial curve, poor fit]

Q: `CCC(C)C(NC(=O)c1ccccc1NC(=O)c1ccccc1)C(=O)O` (centres undefined) was tested. Which Potency did it give?
A: inconclusive: 0.631 µM [inhibitor, full curve, poor fit]

Q: For `Cc1ccc(C(=O)O)cc1-c1ccc(/C=C2\SC(=O)N(CC(=O)Nc3ccccc3)C2=O)o1`, which Potency is on record?
A: active: 17.8 µM

Q: Which Potency does the source give for `O=C1NN(c2ccc(Cl)c(Cl)c2)C(=O)/C1=C/c1ccc(-c2ccccc2C(=O)O)o1` here?
A: active: 20 µM

Q: Which Potency does the source give for `C#Cc1ccc([C@@H]2C=C(C(=O)NCc3ccccc3)O[C@H](OCCCCO)C2)cc1` here?
A: active: 44.7 µM

Q: For `CCOC(=O)N1CCc2c(sc3c2c(=O)n(Cc2ccccc2)c(=O)n3Cc2cccc(Cl)c2)C1`, which Potency is on record?
A: inactive

Q: For `COc1cc(NC(=O)C2=C(C)Nc3nnnn3C2c2ccc(SC)cc2)c(OC)cc1Cl` (centres undefined), which Potency is on record?
A: inactive

Q: Which Potency does the source give for `Cc1cc(C)n2nc3nc(N4CCCCC4)nc(-c4ccco4)c3c2n1` here?
A: active: 10 µM

Q: `CCNc1nc(NCC)n2c(SCC(=O)Nc3cc(Cl)ccc3OC)nnc2n1` was tested. Which Potency did it give?
A: inconclusive: 20 µM [inhibitor, partial curve]

Q: For `c1ccc(-c2nc(-n3nc4ccccc4n3)nc3ccccc23)cc1`, which Potency is on record?
A: inconclusive: 22.4 µM [inhibitor, partial curve, poor fit]

Q: For `COc1ccc(N(CC(=O)N2c3ccccc3CC2C)S(=O)(=O)c2c(C)noc2C)cc1` (centres undefined), which Potency is on record?
A: inconclusive: 79.4 µM [inhibitor, partial curve, poor fit]

Q: Which Potency does the source give for `O=C(Nc1cccc(C(=O)O)c1)/C(=C\c1ccco1)NC(=O)c1ccc(Br)o1` here?
A: active: 17.8 µM

Q: Which Potency does the source give for `O=C1NC(=S)S/C1=C\c1cc2ccccc2nc1N1CCCCC1` here?
A: active: 39.8 µM

Q: With `Cc1ccn2c(=O)nc(SCC(=O)OCc3ccccc3)nc2c1` as the compound, how does the Potency read?
A: active: 50.1 µM

Q: With `O=C(CSc1ccc(-c2ccco2)nn1)NCc1ccc(Cl)cc1` as the compound, how does the Potency read?
A: inconclusive: 7.08 µM [inhibitor, full curve, poor fit]

Q: With `Cc1c(CC(=O)NCC(=O)NCC(=O)O)c(=O)oc2c(C)c3oc4c(c3cc12)CCCC4` as the compound, how does the Potency read?
A: inconclusive: 100 µM [inhibitor, partial curve, poor fit]

Q: With `COC(=O)/C(C(C)=O)=C(\C=C\N(C)C)N(C)C` as the compound, how does the Potency read?
A: inactive

Q: `COC(=O)CCCC1=CC2=CC(=O)C(C)(OC(=O)c3cccs3)C(=O)C2=CN1Cc1ccco1` (centres undefined) was tested. Which Potency did it give?
A: inconclusive: 25.1 µM [inhibitor, full curve, poor fit]
